Results reported in patent publication US20090202429A1.

Biological target: human platelet glycoprotein Ib alpha (GPIb alpha), on human platelets (human) (UniProt P07359)
Assay: cell-based or functional assay

UniProt P07359, sequence (P07359 17-652): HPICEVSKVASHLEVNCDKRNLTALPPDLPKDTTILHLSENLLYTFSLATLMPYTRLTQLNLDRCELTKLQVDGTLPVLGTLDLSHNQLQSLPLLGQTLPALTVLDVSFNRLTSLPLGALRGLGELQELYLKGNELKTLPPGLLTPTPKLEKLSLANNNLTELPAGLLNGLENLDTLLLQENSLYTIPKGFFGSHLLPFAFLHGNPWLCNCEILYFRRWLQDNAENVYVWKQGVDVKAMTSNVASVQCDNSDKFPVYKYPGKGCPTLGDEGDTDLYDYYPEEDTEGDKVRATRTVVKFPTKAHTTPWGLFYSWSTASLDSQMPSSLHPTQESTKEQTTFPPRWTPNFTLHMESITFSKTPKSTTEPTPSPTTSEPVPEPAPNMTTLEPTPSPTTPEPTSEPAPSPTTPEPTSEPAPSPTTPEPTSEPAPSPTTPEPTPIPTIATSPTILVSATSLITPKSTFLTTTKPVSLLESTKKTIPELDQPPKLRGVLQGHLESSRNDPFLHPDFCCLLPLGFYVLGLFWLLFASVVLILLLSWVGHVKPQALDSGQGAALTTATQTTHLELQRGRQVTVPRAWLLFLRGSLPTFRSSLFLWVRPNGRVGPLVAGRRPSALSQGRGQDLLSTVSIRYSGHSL

“human plasma VWF (purified from or captured out of human plasma) (a stretch of the chain, sequence not shown) (ligand)” was tested. Which translocation velocity of human platelets on immobilized plasma VWF did it give?
The translocation velocity of human platelets on immobilized plasma VWF was 3.2 µm/sec.
